# Assay results: the supplement of paper PMC7826260
# The list shows a part of the results. Viral Rep nickase domains cut single-stranded DNA in vitro (3 µM enzyme, 1 h, 37 °C); shown is the middle of each 90-letter strand. A value is the log2 ratio of uncut reads to the pool without enzyme; uncut sequences lie near 0, cut ones below; no hit call is given. Reads are scaled to the total; values above 0 arise when much of the pool is cut.
# Tested on: T1, Rep nickase domain of chickpea chlorotic dwarf virus
# T1 sequence (residues 1-124 of Rep, tag left off): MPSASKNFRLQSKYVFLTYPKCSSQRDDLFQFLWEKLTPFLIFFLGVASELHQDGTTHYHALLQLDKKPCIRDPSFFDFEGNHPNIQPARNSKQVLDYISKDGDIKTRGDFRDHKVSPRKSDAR
# Assay: uncleaved DNA left, log2 of reads against the no-enzyme library (log2 ratio); higher = less cleavage (more negative = more Rep cleavage of the k-mer); sequences stand for … in CTCGTCCG…ACCGGAGA
# Method: (§1)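 A pool of 90-nt single-stranded DNAs with seven random bases just before the constant AC of the nick site (name = the seven bases) was cut by 3 µM recombinant His6-SUMO-tagged Rep nickase domain (300 nM DNA, 50 mM HEPES pH 8.0, 50 mM NaCl, 1 mM MnCl2, 1 h, 37 °C, three replicates). Uncut DNA was amplified and sequenced.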
row,Sequence,uncleaved DNA left (log2)
1,TATGGTA,0.072
2,CCGAAGG,1
3,GATACTT,-0.795
4,GCCCAGG,1.04
5,ATTGTCT,-1.99
6,GAGACAT,2.27
7,CCGACGT,0.396
8,CGGTGCT,-0.755
9,AGGTCTG,1.01
10,TTGATTT,-2.01
11,AATATGT,-1.55
12,GGATTGT,0.962
13,CGGACGG,1.24
14,TATACGA,-0.528
15,GCCGTCT,-0.539
16,ATTTTCA,-1.68
17,GGCAACC,1.1
18,ATGACCT,0.323
19,TGGCTCG,-0.621
20,TTGAGTC,-0.275

row,Sequence,uncleaved DNA left (log2)
1,CGCAAAC,-0.162
2,GAGCTAC,0.181
3,GCGGCGC,0.0131
4,ACAGCAT,-0.665
5,ATGCTAA,-0.279
6,CCAATAG,-0.076
7,GATATCT,-1.3
8,AAGATTG,0.687
9,CATTCGA,-0.165
10,CACGTTC,-0.864
11,AGAGAAG,-0.166
12,GTGACTC,1.25
13,TGGGTTG,0.266
14,TGGAAGA,0.682
15,TCGATAT,-0.153
16,CTACGAT,-1.42
17,TGGTCGC,-0.367
18,TTATCAG,-0.669
19,CGGTCAC,0.573

# Tested on: T2, Rep nickase domain of faba bean necrotic yellows virus
# T2 sequence (residues 1-98 of Rep, tag left off): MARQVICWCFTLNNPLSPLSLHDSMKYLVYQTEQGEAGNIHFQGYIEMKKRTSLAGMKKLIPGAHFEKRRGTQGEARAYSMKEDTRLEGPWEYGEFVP
# Assay: as above
# Method: as §1
row,Sequence,uncleaved DNA left (log2)
1,TATGGTA,0.0412
2,CCGAAGG,0.102
3,GATACTT,0.0971
4,GCCCAGG,-0.0133
5,ATTGTCT,0.0495
6,GAGACAT,0.0335
7,CCGACGT,0.165
8,CGGTGCT,0.038
9,AGGTCTG,0.024
10,TTGATTT,0.0435
11,AATATGT,0.0185
12,GGATTGT,-0.00282
13,CGGACGG,0.0666
14,TATACGA,0.00136
15,GCCGTCT,-0.0785
16,ATTTTCA,-0.103
17,GGCAACC,0.0762
18,ATGACCT,0.00576
19,TGGCTCG,-0.115
20,TTGAGTC,-0.0549

row,Sequence,uncleaved DNA left (log2)
1,CGCAAAC,-0.052
2,GAGCTAC,-0.0781
3,GCGGCGC,0.042
4,ACAGCAT,-0.0841
5,ATGCTAA,0.0228
6,CCAATAG,0.148
7,GATATCT,0.0929
8,AAGATTG,0.0232
9,CATTCGA,0.0866
10,CACGTTC,-0.0065
11,AGAGAAG,0.202
12,GTGACTC,-0.028
13,TGGGTTG,-0.0313
14,TGGAAGA,-0.0927
15,TCGATAT,0.0991
16,CTACGAT,-0.00398
17,TGGTCGC,0.134
18,TTATCAG,-0.0135
19,CGGTCAC,-0.0159

# Tested on: T3, Rep nickase domain of maize striate mosaic virus
# T3 sequence (residues 1-117 of Rep, tag left off): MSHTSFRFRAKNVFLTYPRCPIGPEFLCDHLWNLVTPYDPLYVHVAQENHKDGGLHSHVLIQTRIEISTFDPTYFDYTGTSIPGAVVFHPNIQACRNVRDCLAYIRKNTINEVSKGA
# Assay: as above
# Method: as §1
row,Sequence,uncleaved DNA left (log2)
1,TATGGTA,0.972
2,CCGAAGG,0.498
3,GATACTT,0.89
4,GCCCAGG,0.811
5,ATTGTCT,-1.27
6,GAGACAT,2.36
7,CCGACGT,0.498
8,CGGTGCT,-0.548
9,AGGTCTG,1.65
10,TTGATTT,-0.444
11,AATATGT,-0.854
12,GGATTGT,0.9
13,CGGACGG,1.72
14,TATACGA,-0.562
15,GCCGTCT,0.0204
16,ATTTTCA,-0.664
17,GGCAACC,1.73
18,ATGACCT,0.779
19,TGGCTCG,-1.03
20,TTGAGTC,-1.04

row,Sequence,uncleaved DNA left (log2)
1,CGCAAAC,-0.612
2,GAGCTAC,0.978
3,GCGGCGC,-0.18
4,ACAGCAT,-0.759
5,ATGCTAA,-0.868
6,CCAATAG,-1.09
7,GATATCT,0.718
8,AAGATTG,1.18
9,CATTCGA,-1.05
10,CACGTTC,-0.795
11,AGAGAAG,-0.689
12,GTGACTC,2.04
13,TGGGTTG,0.412
14,TGGAAGA,0.0814
15,TCGATAT,0.0425
16,CTACGAT,0.252
17,TGGTCGC,-0.55
18,TTATCAG,-1.23
19,CGGTCAC,0.604

# Tested on: T4, Rep nickase domain of porcine circovirus 2
# T4 sequence (residues 2-116 of Rep, tag left off): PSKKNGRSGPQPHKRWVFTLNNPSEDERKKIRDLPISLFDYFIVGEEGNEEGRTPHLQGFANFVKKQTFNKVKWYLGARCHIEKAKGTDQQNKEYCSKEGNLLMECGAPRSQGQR
# Assay: as above
# Method: as §1
row,Sequence,uncleaved DNA left (log2)
1,TATGGTA,0.0728
2,CCGAAGG,0.225
3,GATACTT,-1.46
4,GCCCAGG,0.0784
5,ATTGTCT,-1.29
6,GAGACAT,0.216
7,CCGACGT,-0.0184
8,CGGTGCT,-2.32
9,AGGTCTG,0.122
10,TTGATTT,-1.11
11,AATATGT,-3.18
12,GGATTGT,-0.0486
13,CGGACGG,0.184
14,TATACGA,0.124
15,GCCGTCT,-0.00702
16,ATTTTCA,-0.499
17,GGCAACC,-0.767
18,ATGACCT,-0.126
19,TGGCTCG,0.00941
20,TTGAGTC,-0.0583

row,Sequence,uncleaved DNA left (log2)
1,CGCAAAC,-0.0776
2,GAGCTAC,-0.0536
3,GCGGCGC,0.0392
4,ACAGCAT,0.0814
5,ATGCTAA,-0.0304
6,CCAATAG,0.402
7,GATATCT,-0.593
8,AAGATTG,0.164
9,CATTCGA,0.0873
10,CACGTTC,-0.0112
11,AGAGAAG,0.244
12,GTGACTC,0.118
13,TGGGTTG,0.0773
14,TGGAAGA,0.0767
15,TCGATAT,-0.19
16,CTACGAT,0.0805
17,TGGTCGC,0.117
18,TTATCAG,0.179
19,CGGTCAC,0.0108

# Tested on: T5, Rep nickase domain of tomato yellow leaf curl virus
# T5 sequence (residues 1-136 of Rep, tag left off): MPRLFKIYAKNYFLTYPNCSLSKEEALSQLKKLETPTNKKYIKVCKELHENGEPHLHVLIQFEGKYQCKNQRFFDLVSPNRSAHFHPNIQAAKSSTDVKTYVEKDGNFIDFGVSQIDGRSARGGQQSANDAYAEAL
# Assay: as above
# Method: as §1
row,Sequence,uncleaved DNA left (log2)
1,TATGGTA,0.157
2,CCGAAGG,-0.013
3,GATACTT,0.104
4,GCCCAGG,0.00223
5,ATTGTCT,-0.106
6,GAGACAT,0.101
7,CCGACGT,0.03
8,CGGTGCT,0.134
9,AGGTCTG,0.0038
10,TTGATTT,0.039
11,AATATGT,-0.0394
12,GGATTGT,0.063
13,CGGACGG,0.0938
14,TATACGA,0.0457
15,GCCGTCT,-0.0732
16,ATTTTCA,-0.0863
17,GGCAACC,0.101
18,ATGACCT,-0.0603
19,TGGCTCG,-0.215
20,TTGAGTC,-0.0712

row,Sequence,uncleaved DNA left (log2)
1,CGCAAAC,-0.0127
2,GAGCTAC,-0.0579
3,GCGGCGC,-0.0236
4,ACAGCAT,0.0364
5,ATGCTAA,-0.0167
6,CCAATAG,0.285
7,GATATCT,0.15
8,AAGATTG,-0.133
9,CATTCGA,0.0972
10,CACGTTC,-0.15
11,AGAGAAG,0.118
12,GTGACTC,0.0328
13,TGGGTTG,-0.0488
14,TGGAAGA,0.0095
15,TCGATAT,0.118
16,CTACGAT,-0.00197
17,TGGTCGC,0.0568
18,TTATCAG,0.0965
19,CGGTCAC,-0.0367
